Sequences with one replicate were seen in a single cluster, so their values are uncertain.
System: ATP
Assay: switch fluorescence ratio, 500 uM ATP over buffer (Cy3 cluster intensity, sum of 5 cycles each) (fold (ratio)); higher = stronger signal-on switching upon ATP binding; sequences stand for … in TCGTCGGCAGCGTCAGATGTGTATAAGAGACAGTTTTTTTTTTTTTTTTTTTTTTTTT…TC
Settings: aptamer strand: ATP DNA aptamer (quencher-CACCTGGGGGAGTATTGCGGAGGAAGG + anchor), 100 nM annealed; ATP concentration: 500 uM; one replicate
Summary of the method: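 Clusters with intensities outside 100-1000 RFU were excluded. The remaining Cy3-labelled switching-strand clusters on a modified Illumina MiSeq flow-cell had been annealed to 100 nM quencher-labelled ATP aptamer and imaged in selection buffer, then after 15 min with 500 uM ATP at 22 °C, for five cycles separated by NaOH stripping and re-annealing. The fluorescence ratio, averaged per switch-domain sequence, is each cluster's summed target-cycle Cy3 intensity over its summed buffer-cycle Cy3 intensity.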
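Also: ATP exposure 15 min at 22 °C before imaging.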

Sequence | switch fluorescence ratio
ATTGCAAGCC | 1.41
CGCGGGAGTG | 1.02
AGGGGTATAA | 0.942
GCACTAGCCT | 1.02
CTGGTGTGG | 0.958
CAAAAGGTGT | 1.15
CTATTCGGAG | 1.02
CCTGAAATC | 1.27
CTTGAGCCTT | 1.02
ATGGCATTTT | 1.02
ATTGTCCACG | 0.994
TAAATACCGT | 1.1
TAGTGGTAGC | 0.998
ACGATCGGAA | 1.11
CAGTATATT | 1.02
CCTGTTCAGT | 1
TTGCCATATT | 1.02
TTACCACAAC | 1.08
AAGATACATT | 1.03
GATATAACAG | 0.986
TTCGAGAGGT | 0.982
GGTCTAGGTT | 0.985
AGAGTATATA | 1.06
TATAACGTGG | 0.961
AGGCCATGTA | 0.996
ATTAAGGCCA | 0.999

Sequence | switch fluorescence ratio
CTAAACACTT | 0.997
TCATACTAAG | 1.06
GATTTCTGTT | 0.963
AGGCGTGCGG | 1.02
GTTCTCATCG | 1.01
AAGTAACGAC | 1.03
CATGCCTGTG | 1.03
TTAAAAAATA | 0.988
CTCTGAGCAA | 3.06
TGATGGCCCA | 1.03
CGTGTCTGCT | 1.05
ATGTTCATAG | 1.02
TCCAGGACG | 0.985
AAGAAGGAGA | 1.02
TGCGTGTGTG | 1.05
CTCAGGTA | 1.01
CAGGTTCGTC | 1.03
ATGGGTTGAC | 0.961
CCCGTATTTG | 1.01
CTCAGTGCGA | 1.2
GACGGTTTA | 0.989
AATGGAGGTT | 0.963
ATGTCAAATG | 0.986
TCGAAGCATG | 3.09
ATGCAGTCGG | 1
AAAGCTAGCG | 0.945

Sequence | switch fluorescence ratio
ATGCTGCGGA | 1.02
TCGCTGATGT | 1
GCTGGGGGT | 1
TCGTCCCAGG | 2.81
AGGCGTAC | 1.07
AGGCTCAGGT | 1.02
GAATTTAATA | 1.02
CCCCCACCAT | 1.06
AAAAGGGG | 1.06
ACAGTAGGT | 1.09
GTCGGCTGTT | 1
CGGGGAAGAG | 1.01
AGTGATTAAT | 0.968
AAGACAATTT | 0.965
TGGGCTGCCT | 0.952
GCAGATTCGC | 1.01
CTAATCTGTA | 0.954
TTAATAAAGA | 0.998
GCGAAAATTG | 0.959
CGGGCCCGCA | 1.02
ACGACGGAGG | 1.05
CTTAGGATG | 1.03
TAGGATTTAA | 1.01
GTGGGAAAGA | 1.02
GAGCTTCCTT | 1.53
ATAAGAGAAA | 1.04

Sequence | switch fluorescence ratio
CTAACCTCTA | 1.02
CAATTAAATC | 1.01
CCGATTCTCC | 2.22
GGCATAGGTT | 0.972
GGTCTGGATA | 0.975
CCGGCTCAGA | 1.07
GTGAGCCGAG | 1.01
CGGAGCTCAT | 2.11
AAAGGCAAGC | 1.15
GTGAACGTG | 1.01
TAGCCAATGG | 1.07
GACCGCCTCG | 1.15
AATATTCGGG | 0.997
AGGATTAGCG | 1.01
AGCCCCAATT | 0.988
AGGTGGAGTT | 0.96
TAGCATTGG | 2.01
CAAGCTTTTG | 0.974
TAATCCCATC | 1.08
CCGTATTTA | 1
AAGGGGCTGA | 0.971
TGATGTAGGT | 1.05
AGCCCGTAAC | 1.1
CTAGGATGCG | 1.02
TGGTCGCTCA | 1.04
TACTTGCTAA | 1.04

Sequence | switch fluorescence ratio
TGATCGTGGG | 0.957
GACGTAAGGA | 1.06
CAACTAAACT | 1.02
TAAAAATGCT | 0.968
ACATTATGAA | 1.03
GAAGGTTGCA | 0.999
TTAATATTGA | 1
ATCTATTTAG | 0.956
ATGGGGATCT | 0.976
TTTGTCTAAA | 0.995
TTTACCCTCT | 1.02
CAGCCAAA | 1.62
TTACATGGAC | 1.05
TTTGGTGAAT | 0.984
CCGGGCACCA | 1.07
AACGAGTGGA | 1.02
CTAGTTGAGG | 0.999
CTTGTGGAGA | 1.01
TTGGTCTAT | 1.02
TTTTAACATC | 1.04
AGCTGTCACC | 0.992
TGCCTGATGT | 0.984
TTTTGAGCC | 0.976
CAATCGC | 1.1
ACCCTCAGGC | 1.16
CTGGCGAAGC | 0.98

Sequence | switch fluorescence ratio
AAGCGGAGTT | 1.05
CGCATAATAA | 2.17
GATCGGTCG | 0.961
CTGGGGTCAT | 1.01
TCTATTGGAA | 0.983
TGCAGATTGG | 0.999
GAGACTGATT | 0.991
GTTACAGGG | 0.967
CTCACGTTCG | 1.06
TAGCCATAGC | 0.986
CACGATTAAC | 1.21
TCTAGTAGAA | 1.03
ATGCTGAGTT | 1.03
CGGACGTGTA | 1.07
TTTAGCCAAA | 0.991
TGAGAGAACT | 0.978
ATAGGTGTT | 1.12
CTAAGATGCT | 0.95
CCCGTTTGCA | 1.03
GCAAAGATGC | 1.06
ATAACTGTTT | 0.963
AACTCCGTTA | 1.14
GACTCGGTTT | 1
TGTTAGCTTG | 0.932
TTTCCAAGGG | 1.02
CGTTGCCCGG | 1.02

Sequence | switch fluorescence ratio
ACGAGCTCTT | 1.03
GGTGAATCTA | 0.983
TGGTATAGAG | 0.98
TGGGTCTA | 1.05
CGCGTGCCGG | 0.973
ACAGTAACGA | 1.08
CACGAGAG | 1.05
ATTTCCTTGG | 1.01
TGCCTTCGCA | 2.02
AGACGACAGC | 0.974
CTAGATGCGT | 1.04
AAGGATTGCT | 0.961
AACGACTGCT | 1.03
TAAGGAGGGA | 1.01
TGGAGGTTTA | 1.01
GAACCTACTC | 1.44
AAGTAGGCAA | 1.06
CTAGAGTTCT | 0.982
CAAGACCTTG | 0.958
TGAGTGTTGT | 0.945
GTAAGGGCGG | 1
AGCCCTTGTG | 1.07
CCAGAAACAA | 1.09
ACAAAAAGTC | 1.01
ATCCGTACGA | 1.13
GGTACTGGAT | 1.01

Sequence | switch fluorescence ratio
CTTGGACGTG | 0.943
TGCGGAGCGG | 1.05
ACACCTATAA | 1.03
CGTTCTTGTG | 0.959
ATATATGTAG | 1.01
CGCGTTGAGC | 1.06
AAGCGCTAAG | 0.974
GAAGTCTATC | 0.979
CGGTCCAGGG | 1.2
CCTGGTGTGT | 1.03
CCCCGGTTC | 2.02
TCAAAAGCAG | 1.62
CTTTACGGCT | 1.1
CGGTTCTCAT | 0.98
AATCTTAGGC | 1.01
GTTACCTCCC | 1.69
ATTTAGCACC | 1.06
TGCGGTCAGG | 0.985
GCGTATTTTA | 1.03

— the supplement of paper PMC10126150
